Assay results published in PubChem BioAssay AID1346428 (National Center for Advancing Translational Sciences (NCATS), 2018).
Several values for one entry are separate records, joined by “and”; a condition that tells them apart may be missing. Equal values may be shown once. About 1,200 (2.5%) of roughly 48,000 compounds were called active. Inconclusive results (about 2%) are left out.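 How the source made its calls: active means activation of at least 60% and not above a set upper limit (about 1 call in 100 departs from these limits); inconclusive means activation of 40% to 60%, or above that upper limit; inactive means activation under 40%.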 This is one part of the list.

biological target: Probable G-protein coupled receptor 32 (Homo sapiens) (UniProt O75388); experiment: qHTS for Agonists of Human Resolvin D1 Receptor DRV1; conditions: CHO-K1 GPR32 beta-arrestin PathHunter luminescence, 90 min; at 76.9 µM; hits give high values; zero percent set by DMSO-only wells
Method in brief: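 Using DMSO wells as EC0, agonist-induced signal was taken as chemiluminescence from beta-Gal reconstituted upon beta-arrestin recruitment to GPR32 in CHO-K1 cells after 90 min compound treatment.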

UniProt O75388, sequence (O75388 whole entry, looked up): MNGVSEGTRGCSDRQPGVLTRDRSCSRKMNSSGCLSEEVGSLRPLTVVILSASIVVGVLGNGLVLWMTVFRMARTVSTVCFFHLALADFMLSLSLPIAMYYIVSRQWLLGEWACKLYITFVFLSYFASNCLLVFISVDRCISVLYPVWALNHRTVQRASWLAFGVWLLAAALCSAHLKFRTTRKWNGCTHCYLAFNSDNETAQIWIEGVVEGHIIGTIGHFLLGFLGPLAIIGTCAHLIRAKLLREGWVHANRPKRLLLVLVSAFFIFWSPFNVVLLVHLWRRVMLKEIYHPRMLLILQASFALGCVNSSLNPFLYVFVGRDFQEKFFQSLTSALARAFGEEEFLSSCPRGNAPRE

activation, inactive:
O=C(O)c1cc2cc(F)ccc2[nH]1 1.4%
COc1ccc(F)cc1S(=O)(=O)NCCc1csc(-c2ccc(Cl)cc2)n1 35.8%
CCOc1ccc(-c2cn(-c3ccc(OC)cc3)c(SCC(=O)Nc3ccccc3Cl)n2)cc1 -24.9%
CCc1ccc(NC(=O)C2CCN(c3nnc(-n4c(C)ccc4C)s3)CC2)cc1 -21.5%
CC(=O)c1ccc(NC(=O)CSc2cn(CC(=O)N3CCCCC3)c3ccccc23)cc1 -5.24%
CCC(=O)Nc1sc2c(c1C(=O)Nc1ccc(OC)cc1)CCC(C(C)(C)C)C2 (configuration not stated) 11.5%
Cc1cc(C)c(S(=O)(=O)NCCc2cc3c(C)ccc(C)c3[nH]c2=O)c(C)c1 1.6%
Cc1ccc(NC(=O)C2Cc3ccccc3N2C(=O)c2ccccc2)cc1Cl (configuration not stated) -7.14%
O=C(Nc1ccc(S(=O)(=O)N2CCC(c3nc4ccccc4s3)CC2)cc1)c1ccc(F)cc1 -1.82%
CCCC(=O)NCCc1nc2ccccc2n1Cc1c(F)cccc1Cl 1%
Cc1ccc(C)c(-n2nnc(-c3nc(-c4ccc(Cl)cc4)no3)c2N)c1 14.8%
COc1ccc(NC(=O)c2sc3nc(C)c(C(=O)Nc4ccc(C)cc4C)c(-c4ccc(Cl)cc4)c3c2N)cc1 7.36%
O=C(NCc1ccc2c(c1)CCN2C(=O)c1ccncc1)c1cccc(Cl)c1 -6.66%
COc1ccc(OC)c(NC(=O)CSC2=Nc3ccccc3C3=NC(CC(=O)NCc4ccco4)C(=O)N23)c1 (configuration not stated) -27.9%
N#Cc1ccc(C(=O)Nc2ccc(Cl)c(-c3nc4cc(Cl)ccc4o3)c2)c(F)c1 -16.7%
Cc1oc(-c2ccccc2F)nc1CS(=O)(=O)CC(=O)N1CCN(c2cccc(C(F)(F)F)c2)CC1 46.5%
NNC(=O)c1ccncc1 -18.7%
CN(C(=O)CCCOc1ccc2[nH]c(=O)ccc2c1)C1CCCCC1 12.8% and 3.1%
COc1cc(OC)cc(C(=O)Nc2cc(-c3nc4ccccc4s3)ccc2OC)c1 -9.71%
Cc1ccc(C(=O)NCC(c2cccs2)S(=O)(=O)c2cccs2)cc1C (configuration not stated) 14.4%
CCOc1ccc(NC(=O)CN(C)S(=O)(=O)c2ccc3c(c2)c(=O)n(C)c(=O)n3C)cc1 -2.81%
CCN(C(=O)c1nn(-c2ccc(OC)c(Cl)c2)c(=O)c2c1c1ccccc1n2C)c1cc(OC)ccc1OC -6.26%
Cc1ccc(NC(=O)c2cccc(NC(=O)N3CCSc4ncccc43)c2)cc1Cl 8.07%
COc1ccc(N2CCN(C(=O)Cn3ncc4c3-c3cc(C)ccc3OC4)CC2)cc1 -44.1%
COc1ccc(-c2nc3sc(CCNC(=O)C(=O)Nc4cc(C)cc(C)c4)c(C)n3n2)cc1 1.26%
CCOC(=O)c1ccc(NC(=O)CN(c2ccc(C)cc2)S(=O)(=O)c2ccc(OC)cc2)cc1 -4.18%
CCC(=O)Nc1nnc(S(=O)(=O)N(C)Cc2ccc(Cl)cc2)s1 -12.6%
COc1ccc(OC)c(NC(=O)CSC2=Nc3ccccc3C3=NC(CCC(=O)NCc4ccco4)C(=O)N23)c1 (configuration not stated) -5.35%
O=S1(=O)c2ccccc2N(Cc2ccc(Cl)cc2F)c2ccccc21 -8.26%
CN(C)S(=O)(=O)c1ccc2c(c1)c(=O)c(C(=O)N1CCN(c3cccc(Cl)c3)CC1)cn2C 11.9%
CCOc1ccccc1NC(=O)CSC1=Nc2ccccc2C2=NC(CC(=O)NC3CCCCC3)C(=O)N12 (configuration not stated) -17.1%
CCOc1ccc(CN2C(=O)c3ccccc3Sc3ccc(C(=O)N4CCN(C)CC4)cc32)cc1 -3.64%
COc1ccc(N2CCN(CCCNC(=O)Nc3ccccc3Cl)CC2)cc1 10.4%
COc1ccc(CCNC(=O)CN(c2ccc(C)cc2)S(=O)(=O)c2ccc(OC)cc2)cc1 -12.7%
CCOc1ccc(-c2nc3c(c(SCC(=O)N4CCCCC4)n2)Cc2cc(C)ccc2O3)cc1 -11.3%
Cc1cc(NC(=O)c2cccnc2)cc(-c2nc3cc(Cl)ccc3o2)c1O 15.9%
CCC(CC)C(=O)Nc1c(C(=O)N2CCN(c3ccccc3F)CC2)oc2ccccc12 -29.5%
CCC(Sc1nc2cc(OC)c(OC)cc2c(=O)n1Cc1ccc(Cl)cc1)C(=O)NCCOC (configuration not stated) -17.4%
Brc1ccc(-c2ccc(CNCCSc3nnnn3-c3ccccc3)o2)cc1 -16.9%
O=C(NC1CC(=O)N(c2ccccc2)C1)c1ccc(S(=O)(=O)N2CCOCC2)cc1 (configuration not stated) 0.96%
CCOC(=O)CC(NC(=O)c1cc2cc(Cl)ccc2oc1=O)c1ccc(C)cc1 (configuration not stated) 31.9%
COc1ccccc1N1CCN(c2ccc3cc(S(=O)(=O)N4CCCCC4)ccc3n2)CC1 -3.93%
Cc1cc(C)cc(Oc2c(C(F)(F)F)oc3c(CN4CCCC(C)C4)c(O)ccc3c2=O)c1 (configuration not stated) -4.62%
COc1ccc(OC)c(NC(=O)CSc2n[nH]c(-c3ccccc3Cl)n2)c1 13%
c1ccc(-c2cn(-c3ccccc3)c3ncnc(N4CCN(c5ccccc5)CC4)c23)cc1 -7.54%
COc1ccc(Br)c2c1-c1nc(NC(=O)c3cccc(C)c3)sc1C2 -28.6%
CC1CCN(C(=O)CSc2c3c(nc4cc(Cl)ccc24)CCCC3)CC1 16.6%
Cc1ccc(-c2nnc(SCCOc3ccccc3)o2)cc1 -0.549%
CCOc1ccc(-n2nc(CO)c(C(=O)NCc3ccc(Cl)cc3)n2)cc1 16.1%
Cc1ccc(C(=O)Nc2ccc(-n3c(C)nc4ccccc4c3=O)cc2)cc1[N+](=O)[O-] 9.18%
COc1ccc(CCNC(=O)Cc2c(C)c3cc(OC)c(OC)cc3oc2=O)cc1 18.7%
Cc1cccc(C)c1OCC(=O)Nc1nonc1-c1ccc(Br)cc1 -0.528%
